According to the supplement of paper PMC8728848:
This is one part of the list.

Key:
Test in all cases: glycan array binding signal (z-score within array); higher = stronger binding
Conditions in all cases: glycan notation: IUPAC condensed, linker removed
[1] = target: Neu5Ac(a2-3)Gal6S(b1-4)[Fuc(a1-3)]GlcNAc
How it was run: (§1)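 From the Consortium for Functional Glycomics database, 3228 arrays were curated, keeping only those whose protein sequence was available. Binding is given as a within-array Z-score averaged across arrays sharing a protein sequence and across linkers. Negative Z-scores can be read as non-binding.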

[2] = target: Neu5Ac(a2-3)GalNAc
How it was run: as §1

[3] = target: Neu5Ac(a2-3)GalNAc(b1-4)GlcNAc
How it was run: as §1

[4] = target: Neu5Ac(a2-3)[GalNAc(b1-4)]Gal(b1-4)Glc
How it was run: as §1

[5] = target: Neu5Ac(a2-3)[GalNAc(b1-4)]Gal(b1-4)GlcNAc
How it was run: as §1

[6] = target: Neu5Ac(a2-3)[GalNAc(b1-4)]Gal(b1-4)GlcNAc(b1-3)GalNAc
How it was run: as §1

[7] = target: Neu5Ac(a2-3)[Neu5Ac(a2-6)]GalNAc
How it was run: as §1

[8] = target: Neu5Ac(a2-6)Gal
How it was run: as §1

[9] = target: Neu5Ac(a2-6)Gal(b1-3)GlcNAc(b1-3)[Gal(b1-4)GlcNAc(b1-6)]Gal(b1-4)Glc
How it was run: as §1

[10] = target: Neu5Ac(a2-6)Gal(b1-4)Glc
How it was run: as §1

[11] = target: Neu5Ac(a2-6)Gal(b1-4)GlcNAc
How it was run: as §1

[12] = target: Neu5Ac(a2-6)Gal(b1-4)GlcNAc(b1-2)Man
How it was run: as §1

[13] = target: Neu5Ac(a2-6)Gal(b1-4)GlcNAc(b1-2)Man(a1-3)Man(b1-4)GlcNAc(b1-4)GlcNAc
How it was run: as §1

[14] = target: Neu5Ac(a2-6)Gal(b1-4)GlcNAc(b1-2)Man(a1-3)[Gal(b1-4)GlcNAc(b1-2)Man(a1-6)]Man(b1-4)GlcNAc(b1-4)GlcNAc
How it was run: as §1

[15] = target: Neu5Ac(a2-6)Gal(b1-4)GlcNAc(b1-2)Man(a1-3)[GlcNAc(b1-2)Man(a1-6)]Man(b1-4)GlcNAc(b1-4)GlcNAc
How it was run: as §1

[16] = target: Neu5Ac(a2-6)Gal(b1-4)GlcNAc(b1-2)Man(a1-3)[GlcNAc(b1-4)][Neu5Ac(a2-6)Gal(b1-4)GlcNAc(b1-2)Man(a1-6)]Man(b1-4)GlcNAc(b1-4)GlcNAc
How it was run: as §1

[17] = target: Neu5Ac(a2-6)Gal(b1-4)GlcNAc(b1-2)Man(a1-3)[Man(a1-6)]Man(b1-4)GlcNAc(b1-4)GlcNAc
How it was run: as §1

[18] = target: Neu5Ac(a2-6)Gal(b1-4)GlcNAc(b1-2)Man(a1-3)[Neu5Ac(a2-3)Gal(b1-4)GlcNAc(b1-2)Man(a1-6)]Man(b1-4)GlcNAc(b1-4)GlcNAc
How it was run: as §1

[19] = target: Neu5Ac(a2-6)Gal(b1-4)GlcNAc(b1-2)Man(a1-3)[Neu5Ac(a2-6)Gal(b1-4)GlcNAc(b1-2)Man(a1-6)]Man(b1-4)GlcNAc(b1-4)GlcNAc
How it was run: as §1

[20] = target: Neu5Ac(a2-6)Gal(b1-4)GlcNAc(b1-2)Man(a1-3)[Neu5Ac(a2-6)Gal(b1-4)GlcNAc(b1-2)Man(a1-6)]Man(b1-4)GlcNAc(b1-4)[Fuc(a1-6)]GlcNAc
How it was run: as §1

[21] = target: Neu5Ac(a2-6)Gal(b1-4)GlcNAc(b1-2)Man(a1-6)Man(b1-4)GlcNAc(b1-4)GlcNAc
How it was run: as §1

[22] = target: Neu5Ac(a2-6)Gal(b1-4)GlcNAc(b1-2)Man(a1-6)[Gal(b1-4)GlcNAc(b1-2)Man(a1-3)]Man(b1-4)GlcNAc(b1-4)GlcNAc
How it was run: as §1

B1: CAA (Caragana arborescens) (protein)
chain: VAVEFDTFDNPDWDPRTKHIGIDVNSIRSNKTTQWGFWNRQVADVDISYEASSKTLNVSLYYPGESYIVTDVVDLKDILPEWVRIGF
- glycan array binding signal (z-score) [1]: -0.244
- glycan array binding signal (z-score) [2]: -0.243
- glycan array binding signal (z-score) [3]: -0.244
- glycan array binding signal (z-score) [4]: -0.241
- glycan array binding signal (z-score) [5]: -0.234
- glycan array binding signal (z-score) [6]: -0.205
- glycan array binding signal (z-score) [7]: -0.238
- glycan array binding signal (z-score) [8]: -0.244
- glycan array binding signal (z-score) [9]: -0.238
- glycan array binding signal (z-score) [10]: -0.243
- glycan array binding signal (z-score) [11]: -0.239
- glycan array binding signal (z-score) [12]: -0.259
- glycan array binding signal (z-score) [13]: -0.248
- glycan array binding signal (z-score) [14]: 2.13
- glycan array binding signal (z-score) [15]: 2.15
- glycan array binding signal (z-score) [16]: -0.251
- glycan array binding signal (z-score) [17]: 0.613
- glycan array binding signal (z-score) [18]: 2.38
- glycan array binding signal (z-score) [19]: 2.31
- glycan array binding signal (z-score) [20]: 3.38
- glycan array binding signal (z-score) [21]: -0.233
- glycan array binding signal (z-score) [22]: 3.9
